The full ranking holds about 33,000 sequences; the median of “E-score (-0.5 to 0.5)” is about -0.017, and the highest 2% start at about 0.3. The list shows a part of the results.
target: T1, Sut1 (UniProt P53032); experiment: PBM E-score (8-mer binding enrichment) (E-score (-0.5 to 0.5)); higher = stronger / more preferred TF binding; most listed sequences are background and not binding sites; settings: protein concentration: 200 nM; construct: GST-full length
T1 sequence: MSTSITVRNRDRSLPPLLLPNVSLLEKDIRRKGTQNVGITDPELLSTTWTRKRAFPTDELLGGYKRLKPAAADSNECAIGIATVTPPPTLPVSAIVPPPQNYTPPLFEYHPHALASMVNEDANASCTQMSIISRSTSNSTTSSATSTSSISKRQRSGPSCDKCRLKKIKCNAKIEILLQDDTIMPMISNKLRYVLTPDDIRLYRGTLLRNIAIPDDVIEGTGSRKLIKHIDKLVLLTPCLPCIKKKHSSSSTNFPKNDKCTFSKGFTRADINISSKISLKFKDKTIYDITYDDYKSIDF
Method: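 Universal 'all 10-mer' protein binding microarrays (Agilent AMADID 015681) probed with GST-tagged S. cerevisiae TFs (full-length or DBD) made by in vitro transcription/translation (PURExpress), about 100-200 nM. Bound TF was detected with fluorescent anti-GST. Each ungapped 8-mer (which stands for itself and its reverse complement) is scored by the PBM enrichment score (E-score), a modified Wilcoxon-Mann-Whitney statistic from -0.5 to +0.5, computed with the Universal PBM Analysis Suite. Scale: above 0.35 generally sequence-specific binding.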

Row | Sequence | PBM E-score
1 | CCCGCCGA | -0.0462
2 | ACATTAAG | 0.239
3 | ACCGGTTA | 0.0761
4 | CATAACCC | -0.0293
5 | AGAAACAA | 0.185
6 | GAATTGTA | 0.128
7 | CTTGCAAA | 0.123
8 | CAGATGCA | -0.275
9 | AACCACGA | -0.0755
10 | GCTTCGGA | 0.324
11 | CTGCAGAA | -0.0376
12 | CCGTTCGA | 0.0217
13 | CGCGGCTC | 0.0309
14 | CAAGTTCA | 0.0723
15 | GATTATGA | 0.164
16 | CCTTAAAG | 0.127
17 | CCGTGGCG | -0.103
18 | ATACAGAA | 0.198
19 | CATGGCGG | -0.183
20 | CATTTAGG | -0.00704
21 | AGCTGGTG | 0.054
22 | ACGCCGTA | 0.0127
23 | CCAAATAC | -0.0892
24 | ACAACACT | 0.2
25 | CTTGCAGA | -0.222

Row | Sequence | PBM E-score
26 | CTCGGAAA | 0.19
27 | GGATGTTA | -0.00768
28 | GTCGCGGA | 0.206
29 | CAAGCATA | -0.0649
30 | CTATAATA | 0.181
31 | AGGGGTAT | -0.217
32 | GCATAGGC | -0.284
33 | CACATCCA | -0.084
34 | AACATAGC | 0.0491
35 | ACTAAATA | 0.262
36 | CCAGCGGA | -0.127
37 | CGATAGCG | 0.0961
38 | ACGCATGC | 0.0987
39 | CCCTCTTA | 0.0206
40 | CAACGTAC | -0.102
41 | AAGGCTTG | -0.154
42 | GTTATCTA | 0.147
43 | CGACATCG | -0.0698
44 | ACAGCCCT | -0.198
45 | CTCTCACC | -0.175
46 | GACCAGCA | -0.137
47 | AACACCGT | -0.093
48 | AGGGTTCG | -0.00263
49 | TCCTTGAA | -0.0478
50 | CCAGGTCC | -0.0512

Row | Sequence | PBM E-score
51 | ACGGATAT | 0.202
52 | TATTGACA | 0.028
53 | AGCGCGAA | 0.0509
54 | CTGCGGAA | -0.0948
55 | GATATTCA | -0.00148
56 | GCCCCCCC | -0.421
57 | AATTAGCT | 0.0894
58 | CGTGTACA | 0.0551
59 | CACTTTAA | 0.157
60 | ATACCACG | 0.123
61 | AGATTCGC | 0.00777
62 | ATGGCGTG | -0.0421
63 | CTAATTTA | 0.175
64 | CCTAGACG | -0.136
65 | CACTGCAG | -0.0874
66 | GAAAGCGC | -0.0413
67 | GAACCTTC | 0.0137
68 | ACCAAAGT | 0.0979
69 | ACAGCTGG | -0.182
70 | TTCCTCAA | 0.0392
71 | AACCAGTG | 0.0203
72 | CGAAGCAG | -0.0992
73 | GTAAAAGA | 0.0474
74 | TGGTGGAA | -0.0809
75 | AGGAGCCA | -0.183

Row | Sequence | PBM E-score
76 | AACACTCA | 0.0329
77 | ACAGGCCG | -0.0708
78 | GAGTACTC | 0.107
79 | GCAGTGTA | -0.179
80 | AGTCTCCG | 0.316
81 | GAAAAATA | 0.306
82 | AAGGACAT | -0.0931
83 | GCTGCCAC | -0.123
84 | AGATACTC | 0.0915
85 | ACTGACGA | -0.171
86 | TAAGTTAA | 0.263
87 | ACATCGCG | -0.146
88 | CCTGCCGC | -0.199
89 | TCGGTAAA | 0.201
90 | GATTGTGC | -0.0611
91 | ACCAGCTC | 0.0669
92 | CGTCAACG | 0.0766
93 | CCTGGATA | -0.26
94 | AAAATCCT | 0.0861
95 | ATGCCCGG | -0.0535
96 | ACCTTTTA | 0.0771
97 | ATCCTTTG | 0.0101
98 | CCGCCGCG | 0.109
99 | CACTTTTC | 0.138
100 | GTATGCAC | -0.186

Row | Sequence | PBM E-score
101 | GATCGGCC | -0.178
102 | AAGCAGAT | 0.0364
103 | CGTGTCTC | -0.24
104 | ACGATACC | 0.117
105 | ATGTCACC | -0.0134
106 | CGTACACA | -0.035
107 | TGCGATAA | 0.208
108 | ACTAGGCG | 0.027
109 | CGAATCGA | 0.173
110 | TGCAAACA | -0.246
111 | ATCCCGCG | 0.132
112 | CGTTGCTC | -0.0752
113 | GTTGTAGA | -0.0458
114 | CGAAAAGA | 0.108
115 | ATGTAGAA | 0.117
116 | CACAGTTA | 0.0177
117 | CAATCAAG | 0.0191
118 | AAATCGCC | 0.0933
119 | ATGAGTTG | 0.0311
120 | CTCGTGGA | -0.0276
121 | GAGCGTGA | -0.129
122 | ATAAGGCA | -0.0336
123 | CGTACGCC | -0.116
124 | GGGAGCTA | -0.176
125 | GAATGTCC | 0.282

Row | Sequence | PBM E-score
126 | TAGCTGGA | -0.235
127 | AACTTTAA | 0.325
128 | ATGAAGAC | 0.0692
129 | AAGGATCA | 0.0104
130 | AAAAATTA | 0.228
131 | CTGTCACA | -0.0715
132 | GAAAGCCA | 0.0743
133 | ATGCGTGC | -0.232
134 | AATGTCCG | 0.447
135 | AGACTGGA | -0.0401
136 | CACATGTG | -0.27
137 | CATCAACA | 0.0927
138 | TGAGCTCA | 0.0688
139 | CCTGGCTA | -0.239
140 | CAGGAGTC | 0.0824
141 | CACAAGGC | -0.171
142 | AGTTACTG | -0.0347
143 | CCCTCAGG | -0.22
144 | ACTGAAAT | 0.0923
145 | ATGATGTC | 0.167
146 | AGAAATGG | -0.012
147 | CGATCCGC | -0.128
148 | ACTCGGGA | -0.0951
149 | AGTATTAC | 0.236
150 | AACGTGGC | -0.115

Row | Sequence | PBM E-score
151 | CACAGAGA | -0.0672
152 | AAGCCCAA | -0.0948
153 | CAACCGGA | 0.338
154 | CAATCTAG | -0.0129
155 | CCTTCCTC | -0.166
156 | CACTAACG | -0.17
157 | CGGTAAAA | 0.225
158 | GACCTGCC | -0.308
159 | GAATATTC | 0.232
160 | GCGTGACC | -0.22
161 | ACCCAGTG | -0.262
162 | AAGGAAAC | 0.0287
163 | GAATCCAA | 0.133
164 | GACGGGAC | -0.26
165 | ACACACTA | 0.0857
166 | ATCCAACG | -0.145
167 | AATGCATT | 0.219
168 | CAGGTTAC | 0.0828
169 | AACCATGA | 0.112
170 | CGGAGAGA | 0.317
171 | AGGCGAAA | -0.133
172 | TAGCGATA | -0.0115

Source: the supplement of paper PMC3334620
